According to publication PMC4336329 (PLoS ONE, 2015):
The whole screen tested about 310,000 compounds, of which about 14,000 (4.5%) showed an effect of 50% or more. Effects have a minus sign here. This is one part of the list.

Molecular target: human ether-à-go-go-related gene (hERG) potassium channel (human, UniProt Q12809)
Experiment: primary screen, population patch clamp on CHO cells stably expressing hERG
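Also: peak tail current of the secondary pulse compared with the same well before compound.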

Chain of human ether-à-go-go-related gene (hERG) potassium channel (Q12809 whole entry, looked up): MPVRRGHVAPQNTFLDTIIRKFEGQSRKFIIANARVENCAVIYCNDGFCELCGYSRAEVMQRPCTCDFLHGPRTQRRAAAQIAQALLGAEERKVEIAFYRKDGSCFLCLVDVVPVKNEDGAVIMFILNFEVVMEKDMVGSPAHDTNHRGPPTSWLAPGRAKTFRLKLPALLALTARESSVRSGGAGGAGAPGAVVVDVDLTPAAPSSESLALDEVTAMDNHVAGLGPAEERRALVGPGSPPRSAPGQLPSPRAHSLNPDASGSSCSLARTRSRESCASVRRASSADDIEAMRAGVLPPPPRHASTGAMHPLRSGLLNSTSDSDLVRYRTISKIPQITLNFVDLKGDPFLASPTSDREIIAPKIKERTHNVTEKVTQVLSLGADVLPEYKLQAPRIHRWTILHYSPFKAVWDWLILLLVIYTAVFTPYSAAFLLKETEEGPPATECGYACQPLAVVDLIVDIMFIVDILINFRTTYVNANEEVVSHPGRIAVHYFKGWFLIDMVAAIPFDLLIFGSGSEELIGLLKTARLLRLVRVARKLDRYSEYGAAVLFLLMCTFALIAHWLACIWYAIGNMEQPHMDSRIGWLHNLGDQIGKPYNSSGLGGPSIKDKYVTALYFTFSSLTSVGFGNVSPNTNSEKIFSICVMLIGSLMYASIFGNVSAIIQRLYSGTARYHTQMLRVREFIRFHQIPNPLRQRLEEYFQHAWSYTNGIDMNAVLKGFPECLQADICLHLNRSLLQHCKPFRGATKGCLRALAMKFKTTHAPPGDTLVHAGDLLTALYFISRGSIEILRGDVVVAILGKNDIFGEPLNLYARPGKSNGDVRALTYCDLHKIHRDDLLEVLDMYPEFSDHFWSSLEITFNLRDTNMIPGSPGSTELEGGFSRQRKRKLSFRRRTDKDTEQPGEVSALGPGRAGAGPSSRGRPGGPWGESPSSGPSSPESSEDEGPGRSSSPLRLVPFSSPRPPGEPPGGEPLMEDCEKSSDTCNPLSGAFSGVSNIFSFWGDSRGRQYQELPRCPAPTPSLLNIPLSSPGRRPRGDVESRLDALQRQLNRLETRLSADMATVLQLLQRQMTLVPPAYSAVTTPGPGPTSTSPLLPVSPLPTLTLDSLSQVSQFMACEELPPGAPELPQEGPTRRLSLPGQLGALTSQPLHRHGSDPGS

SMILES | hERG current change (%, negative = inhibition) at 10uM
CCOC(=O)c1c(=O)n(O)c2ccc(C)cc2[n+]1[O-] | 26.7%
Cc1cccc(C)c1NC(=O)c1cn(-c2ccccc2)nc1-c1ccccc1 | 5.59%
Cc1cc(C(=O)NC2CCCc3c2cnn3-c2cccc(C)c2C)n(C)n1 (stereo not shown) | 18.4%
Cc1nnc(NS(=O)(=O)c2ccc(N)cc2)s1 | 10.5%
O=C(NCc1csc(-c2cccs2)n1)c1ccccc1 | -3.84%
CC(=O)c1cccc(NC(=O)CN2C(=S)NC(C)(C)CC2C)c1 (stereo not shown) | 9.76%
Cc1cccc(C)c1OCC(=O)Nc1nnc(C2CCCO2)s1 (stereo not shown) | -4.65%
COc1cccc(CN(C)C(=O)CSCC(=O)Nc2cc(C)on2)c1OC | 11.6%
CCOc1ccc(OCCCCNCCN)cc1.O=C(O)C(=O)O | 5.79%
CCCCn1c(SCn2nnc3ccccc3c2=O)nc2cc(S(N)(=O)=O)ccc21 | -34.5%
COc1ccccc1NC(=O)/C(C#N)=C/C=C/c1ccco1 | -21.4%
O=S(=O)(c1ccccc1)N1CCC(N2CCCCCC2)CC1 | -4.27%
Cc1cc(Nc2nnnn2-c2ccccc2)n(-c2ccccc2)n1 | -21.8%
Fc1ccc(CNCc2ccccc2C(F)(F)F)cc1 | 12.1%
Cc1cccc(N2CCN(C(=O)C3COc4ccccc4O3)CC2)c1C (stereo not shown) | -17.4%
CC(C)C[C@H](NC(=O)c1nc[nH]c1C(=O)N1CCN(C(=O)OC(C)(C)C)CC1)C(=O)OC(C)(C)C | -14.2%
COc1cccc(C2C(C(=O)c3cccs3)=C(O)C(=O)N2c2cc(C)on2)c1 (stereo not shown) | 10.8%
COc1ccccc1N1CCN(C(=S)Nc2cccc(C)c2)CC1 | 3.51%
CCCCCCC(=O)Nc1nc(C)c(-c2csc(Nc3cc(Cl)ccc3OC)n2)s1 | 17.2%
CCOC(=O)C1=C(c2ccccc2)N(C)C(=O)NC1c1ccc(O)c(OC)c1 (stereo not shown) | -4.21%
COc1ccc(/C=N/NC(=O)c2ccc(Br)cc2)c(OC)c1 | -17.7%
Nn1c(SCC(=O)Nc2nccs2)nncc1=O | 17%

SMILES | hERG current change (%, negative = inhibition) at 10uM
CC(=O)Nc1ccc(NC(=O)c2c(-c3ccccc3Cl)noc2C)cc1 | 5.89%
CCOC(=O)c1sc(NC(=O)CSC(=S)N2CCOCC2)nc1C | 9.27%
COc1cccc(OC)c1C(=O)Nc1ccccc1C(=O)N1CCCCCC1 | -2.72%
Cc1ccc2c(c1C)NC(=O)CC(c1ccccc1O)=N2 | 2.15%
CCc1ccc(NC(=O)COC(=O)c2ccc(Cl)c(S(=O)(=O)N3CCCCCC3)c2)cc1 | 10.3%
COc1ccc(CCC(=O)NC2CCCN(Cc3ccc(Cl)cc3)C2)cc1OC (stereo not shown) | -48.2%
O=C(CCc1ccccc1)Nc1cc2c(cc1Cl)OCCO2 | -7.19%
COC(=O)C1=C(NC(=O)C(C)(C)C)CCS1 | -4.14%
O=C(Nc1ccc(S(=O)(=O)Nc2nccs2)cc1)c1cnc(Cl)c(Cl)c1 | -30.8%
O=C(CNC(=O)COc1ccccc1)NCc1cccnc1 | 6.65%
COc1ccc(-c2sc3ccccc3c2C#CCCO)cc1 | 29.6%
CC(C)(C)c1ccc(C(=O)O[C@H]2[C@H](Cc3ccccc3)NS(=O)(=O)[C@H]3C[C@@H]4C=C[C@]23O4)cc1 | 21.2%
CN(c1ccccc1)c1ccc([N+](=O)[O-])c2nonc12 | 4.39%
Cc1cccc(C(=O)CC(=O)c2cc(Cl)ccc2O)c1 | 10.7%
O=C(CCc1nnc(Cc2cccc(C(F)(F)F)c2)o1)NCC(F)(F)F | -6.02%
OCCOCCn1c(CCNc2nc(-c3ccc(F)cc3)cs2)nc2cc(C(F)(F)F)ccc21 | -61.1%
O=c1cc(CN2CCCCCC2)nc2sccn12 | -13.3%
O=C(NCCN1CCOCC1)c1cccc(S(=O)(=O)NCc2ccccc2)c1 | -18.4%
O=C(CNS(=O)(=O)c1ccc(Br)cc1)NCc1cccnc1 | 0.275%
CCN1CCN(C(=O)c2cc(S(=O)(=O)N3CCCCC3)ccc2Cl)CC1 | 8.18%
COc1ccc(C(=O)Nc2cccc(C)c2)cc1S(=O)(=O)N1CCOCC1 | -16%
COc1cccc(C2CC(C(F)(F)F)n3nc(C(=O)NCc4cccnc4)cc3N2)c1 (stereo not shown) | -21.1%

SMILES | hERG current change (%, negative = inhibition) at 10uM
COc1cc2c(cc1OC)C(C(=O)Nc1ccc3c(c1)OCCO3)C1c3ccccc3CCN1C2=O (stereo not shown) | -9.15%
COc1ccccc1OCC(O)Cn1c(=N)n(CCN2CCCCC2)c2ccccc21.Cl (stereo not shown) | -65.4%
OC(Cn1c2ccccc2c2ccccc21)C[n+]1cccc2ccccc21.[O-][Cl+3]([O-])([O-])[O-] (stereo not shown) | -33.5%
CSCCC(C(=O)OCC(=O)c1ccc(C)c(C)c1)N1C(=O)c2cc(Cl)c(Cl)cc2C1=O (stereo not shown) | 3.62%
O=C(Nc1nc2ccccc2n1CCN1CCCCC1)C1CCCCC1 | -61.2%
COc1ccc(NS(=O)(=O)c2cc3c(cc2C)N(C)CCO3)c(OC)c1 | 1.28%
Cc1nn(C)c(C)c1NC(=O)CSc1nc(-c2ccccc2Cl)nc2c1cnn2-c1ccccc1 | -0.273%
COc1ccc(CCNC(=O)c2c(C)nc3ccccn23)cc1OC | -64.3%
Cn1nc(C(=O)Nc2ccc3c(c2)OCO3)c2ccccc2c1=O | 7.17%
Cc1ccc(C2=Nc3ccccc3N=C(c3ccco3)C2)c(O)c1 | 11%
Nc1cccnc1S(=O)(=O)c1ccccc1 | 13.8%
COc1ccc(OC)c(NC(=O)c2cnn(-c3ccccc3)c2C)c1 | 2.89%
CCOC(=O)N1CCN(C(=O)CN(Cc2ccccc2)S(C)(=O)=O)CC1 | 3.92%
O=C(CCC(=O)N1C[C@H]2C[C@@H](C1)c1cccc(=O)n1C2)NCc1ccc(F)cc1 | 13.5%
Cc1ccccc1SCCNC(=O)c1ccccc1Br | -6.53%
Cc1ccc(C2C(N)C(=O)N2c2ccc(C)cc2)cc1 (stereo not shown) | -5.54%
COc1ccccc1NC(=O)Cn1cnc2c(cnn2-c2ccc(C)c(C)c2)c1=O | 12.1%
Cc1cc(C)nc(N2CCCC(C(=O)NCc3ccccc3)C2)n1 (stereo not shown) | 7.35%
Cc1cccc(N2CCN(C(=S)Nc3ccc4nc(N5CCOCC5)cc(C)c4c3)CC2C)c1 (stereo not shown) | 3.34%
CCc1nc(Sc2nnnn2-c2ccccc2)c2c3c(sc2n1)CCCC3 | -13.8%
CNc1nc(Cl)c(SC)c(NCc2ccc(F)cc2)n1 | 12.8%
OC1COC(O)C(O)C1O (stereo not shown) | 4.35%

SMILES | hERG current change (%, negative = inhibition) at 10uM
COc1ccccc1CCNC(=O)C(=O)NCC1OCCN1S(=O)(=O)c1cc(F)ccc1F (stereo not shown) | -14.6%
C=CCn1c(COc2cccc(C)c2)nnc1SCC(=O)NC(=O)NCc1ccco1 | 12.1%
O=C(O)C1CCCCC1C(=O)Nc1ccccc1Cl (stereo not shown) | 15.1%
CC1CCCC(NC(=O)CN2C(=O)c3cccnc3Oc3ccc(Cl)cc32)C1C (stereo not shown) | -4.33%
CCc1ccc[n+](-c2[nH]c(=O)sc2/C=N/N=C(\[O-])CCn2c3ccccc3c3ccccc32)c1 | 14.9%
Cc1nc(C(=O)NC2CCOCC2)sc1C1(C)CC(c2cccc([N+](=O)[O-])c2)=NO1 (stereo not shown) | -23.3%
NS(=O)(=O)c1ccc(NC(=O)/C=C/c2cccc(Cl)c2)cc1 | 0.282%
CCOC(=O)C1=C(C)N(CCCC(=O)O)C(=O)NC1c1ccc([N+](=O)[O-])cc1 (stereo not shown) | 12.5%
COC(=O)C1=C(c2cccc(OCc3ccccc3)c2)C[C@@H]2CC[C@H]1N2C(=O)NCc1ccc([N+](=O)[O-])cc1 | 1.06%
CC1(C)CC(/C=C/c2ccccc2)=Nc2ccccc2N1 | -26.6%
COc1ccc(OC)c(NC(=O)COC(=O)c2ccc(OC)c(S(=O)(=O)N3CCCC3)c2)c1 | 16.9%
CC1NC(C)(C)Cc2c1ccc1ccccc21.Cl (stereo not shown) | 0.121%
COc1ccccc1CNS(=O)(=O)c1ccc2c(c1)CC(C)N2C(=O)C1CC1 (stereo not shown) | -5.03%
CN(Cc1ccccc1)C(=O)CCS(=O)(=O)c1ccc2c(c1)n(C)c(=O)c(=O)n2C | -8.17%
COc1ccc(COC(=O)C2=C(C)NC(=O)NC2c2ccc(OC)c(OC)c2)cc1 (stereo not shown) | 8.58%
O=C(COc1ccccc1)Nc1ccc(S(=O)(=O)Nc2ncccn2)cc1 | 23.4%
CC(=O)OC1CC[C@@]2(C)C(CCC3C2CC(=O)[C@@]2(C)C3CC3CC(C)=CC(=O)C32)C1 (stereo partly shown) | 9.48%
Cc1cc(OC(C)C(=O)NCCCn2ccnc2)c2c(C)c(C)c(=O)oc2c1 (stereo not shown) | -76.7%
O=C1NC(c2ccncc2)Nc2ccccc21 (stereo not shown) | 21.8%
